# Measured values taken from PMC6919601, “Identification of Plasmodium dipeptidyl aminopeptidase allosteric inhibitors by high throughput screening” (PLoS ONE, 2019).
# Where “and” joins values, the source holds several entries; their conditions need not be identical. Identical values can stand only once. About 230 (0.21%) of roughly 110,000 compounds showed an effect of 50% or more. The list shows a part of the results.
# Biological target: DPAP1 (Plasmodium falciparum, UniProt Q8IIJ9)
# Test: primary screen, percent inhibition; read by cleavage of a fluorogenic dipeptide substrate; higher = more effect of the substance
# Parameters: species or system P. falciparum D10 trophozoite lysates; single well
# 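Further: 30 min substrate incubation versus DMSO and 10 µM JCP410 controls.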
# Chain of DPAP1 (Q8IIJ9 whole entry, looked up): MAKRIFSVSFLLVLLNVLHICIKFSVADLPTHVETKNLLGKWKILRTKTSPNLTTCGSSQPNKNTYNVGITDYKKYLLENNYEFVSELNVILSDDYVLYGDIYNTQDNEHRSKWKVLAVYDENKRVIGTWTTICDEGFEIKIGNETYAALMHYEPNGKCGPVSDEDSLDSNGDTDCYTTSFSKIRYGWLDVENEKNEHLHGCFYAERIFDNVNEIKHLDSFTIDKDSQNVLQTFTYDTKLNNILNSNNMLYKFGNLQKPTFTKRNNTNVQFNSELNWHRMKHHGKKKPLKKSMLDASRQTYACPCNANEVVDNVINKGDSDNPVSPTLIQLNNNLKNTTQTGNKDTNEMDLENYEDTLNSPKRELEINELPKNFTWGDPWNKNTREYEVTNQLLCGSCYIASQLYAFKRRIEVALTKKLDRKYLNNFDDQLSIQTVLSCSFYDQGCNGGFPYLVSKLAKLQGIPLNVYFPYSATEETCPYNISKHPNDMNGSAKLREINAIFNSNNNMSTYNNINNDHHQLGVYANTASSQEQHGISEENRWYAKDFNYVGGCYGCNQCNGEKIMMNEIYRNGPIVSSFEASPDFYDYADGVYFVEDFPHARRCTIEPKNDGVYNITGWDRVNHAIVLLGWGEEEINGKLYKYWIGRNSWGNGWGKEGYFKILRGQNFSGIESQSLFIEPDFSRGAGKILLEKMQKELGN
row,Compound,% Inhibition @ 10 uM
1,Oc1cccc(CN2CCN(c3ccc(F)cc3)CC2)c1,3.25%
2,CC(=O)c1ccc(C2CC2)c([N+](=O)[O-])c1,5.54%
3,Cc1ccc(CNC(=O)Cn2ncn3c(cc4sccc43)c2=O)cc1,3.4%
4,O=C(O)c1ccccc1N1C(=O)c2cccc([N+](=O)[O-])c2C1=O,-3.16%
5,Cc1ccc(-c2nn3c(C)nnc3c3ccccc23)cc1S(=O)(=O)NCC1CCCO1 (stereo not shown),-0.222%
6,CC(=O)N1CCN(Cc2cc(C)ccc2C)CC1,-6.82%
7,Cc1nn(C(C)C(=O)NCCCc2ccccc2)c(=O)c2nn(-c3ccccc3)c(C)c12 (stereo not shown),-0.307%
8,CCC/N=c1\c(NC(=O)Cc2ccc(OC)cc2)c(O)oc2ccccc12,-4.46%
9,CCN(CC)CCCOc1ccccc1,-0.906%
10,O=C1CC(N2CCN(c3ccccc3F)CC2)C(=O)N1c1ccc2c(c1)OCCO2 (stereo not shown),2.64%
11,Cc1c2cnn(CC(=O)N(C)Cc3ccccc3)c(=O)c2c(C)n1Cc1ccccc1,1.22%
12,COC(=O)c1cc(S(=O)(=O)N2CCC(Cc3ccccc3)CC2)cn1C,-6.59%
13,CCCC[C@H](NC(=O)[C@H](Cc1ccc2ccccc2c1)NC(=O)c1cccc(CN)c1)C(=O)COCc1ccccc1,-3.97%
14,CC(=O)Nc1ccc(NC(=O)C(C)c2ccc(CC(C)C)cc2)cc1 (stereo not shown),-5.92%
15,OC1(c2ccc(Cl)cc2)CCN(Cc2cccc(Cl)c2)CC1,5.99%
16,O=c1c2c3n(c4cc(Cl)c([N+](=O)[O-])cc4c-2nn1-c1ccccc1)CCC3,2.23%
17,CC1CCCCN1C(=O)C1CC=CCC1C(=O)O (stereo not shown),3.94%
18,CC(CCc1ccccc1)NC(=O)c1ccccc1C(=O)O (stereo not shown),2.79%
19,CCOc1cc(C2C3=C(CC(C)(C)CC3=O)N(CCOC)C3=C2C(=O)CC(C)(C)C3)ccc1O,3.47%
20,N#CC1=C2SCN(Cc3ccco3)CN2C(=O)CC1c1cccs1 (stereo not shown),47.7%
21,O=C1c2ccccc2-c2nn(C(=O)c3ccncc3)c3cccc1c23,2.46%
22,O=C(c1ccc(Br)o1)N1CCN(c2ccc(F)cc2)CC1,1.03%
23,NC(=O)c1ccc(NC(=O)c2ccc(COc3ccc(F)cc3)o2)cc1,-0.63%
24,CCC(C)n1c(=N)c(C#N)cc2c(=O)n3cc(C)ccc3nc21 (stereo not shown),0.279%
25,Cn1c(O)cc(=O)nc1SCc1ccc(Cl)cc1,-0.833%

row,Compound,% Inhibition @ 10 uM
1,CN1C(=O)c2ccc(NC(=O)COc3ccc(C(C)(C)C)cc3)cc2C1=O,-7.14%
2,OCC1CCCN1C1CCC(c2ccccc2)CC1 (stereo not shown),-1.75%
3,CCOC(=O)N1CCC(N2CC34C=CC(O3)C(C(=O)O)C4C2=O)CC1 (stereo not shown),-4.69%
4,C/C=C/COC(=O)C1=C(C)NC(=O)NC1c1ccc(Br)cc1 (stereo not shown),5.16%
5,CCOC(=O)Nc1ccc2c(c1)N(C(=O)CN(C)C)c1ccccc1CC2,-4.26%
6,OCCNc1nc(Nc2ccccc2)nc2ccccc12,-4.12%
7,COC(=O)c1ccccc1NC(=O)[C@@H]1C2C=CC(C2)[C@@H]1C(=O)O (stereo partly shown),-6.22%
8,CN(CCNC(=O)NCc1noc2ccccc12)Cc1ccccc1,6.84%
9,O=C(Nc1ccccc1)c1cc(S(=O)(=O)N2CCOCC2)c(Cl)cc1Cl,3.65%
10,Cc1cc(C)nc(NC(=O)NS(=O)(=O)Nc2cc([N+](=O)[O-])ccc2C)n1,-7.68%
11,CCn1c(NCc2ccncc2)nc2ccccc21,0.032%
12,COc1ccc(-c2c(C)nn3c(N4CCC(C(=O)NCCN(C)C)CC4)cc(C)nc23)cc1OC,-0.138%
13,CC(=O)c1sc(NC(=O)c2ccc(COc3ccc(Cl)cc3)o2)nc1C,2.1%
14,NC(=O)C1CCN(C(=O)COc2ccc(S(=O)(=O)NCc3ccccc3)cc2Cl)CC1,1.88%
15,COc1ccc(C(=O)Nc2ccc(C(=O)N3CCCCC3)cc2)cc1OC,-2.77%
16,CCOc1cc(C2C(C#N)=C(N)Oc3[nH]nc(C)c32)ccc1OCc1ccccc1F (stereo not shown),-1.38%
17,CC(=O)/N=c1\sc2c(n1C)-c1ccccc1CC2,2.73%
18,Cn1cnc2c1c(=O)n(Cc1ccc(-c3nnc(N)s3)cc1)c(=O)n2C,5.3%
19,Cc1ccc(-c2cn3nc(N4CCC(C(=O)NCCc5cccs5)CC4)sc3n2)cc1,-0.613%
20,O=C(OCC1(COC(=O)c2cccs2)COC(c2ccccc2)=N1)c1cccs1,1.32%
21,CC1(C)Cc2nc3nc(SCC(=O)c4ccc(Br)cc4)nc(N)c3cc2CO1,0.776%
22,Cc1ccc(C(=O)O)cc1-c1ccc(/C=C2\SC(=O)N(CC(=O)N3CCOCC3)C2=O)o1,25.3%
23,CC(C)(CNS(=O)(=O)c1ccc(F)cc1)CNS(=O)(=O)c1ccc(F)cc1,3.72%
24,CCc1nnc(NS(=O)(=O)c2ccc(C)cc2)s1,-0.902%
25,CCC(C)NC(=O)C1CCN(c2ncnc3c2nc2n3CCCCC2)CC1 (stereo not shown),3.72%

row,Compound,% Inhibition @ 10 uM
1,CC(C)CCOc1ccc(C(=O)CCNC(CC(=O)O)c2ccccc2)cc1 (stereo not shown),34.7%
2,CCN(CC)CCNc1ncnc2c1sc1nc(N3CCOCC3)c3c(c12)CC(C)(C)OC3,-2.09%
3,COCCNC(=S)N(CCc1c(C)[nH]c2ccc(OC)cc12)Cc1cccnc1,0.813%
4,COc1ccc(/C=C2\N=C(c3ccc(Br)cc3)OC2=O)cc1,0.775%
5,CS(=O)(=O)N(CC(=O)Nc1ccc(Br)cc1)c1ccccc1F,9.72%
6,CCCC(=O)C1=C(Nc2ccccc2O)CC(C)(C)CC1=O,-1.08%
7,COc1ccc(C(CC(=O)O)NC(=O)C(F)(F)F)cc1 (stereo not shown),-8.77%
8,Clc1ccc(CN2CCN(c3ccccn3)CC2)c(Cl)c1,-4.5%
9,O=C1CC(CC(=C2C(=O)CCCC2=O)N2CCCC2)CC(=O)N1,-0.267%
10,C=CCOc1ccc(C2c3c(-c4ccccc4O)n[nH]c3C(=O)N2Cc2ccncc2)cc1OCC (stereo not shown),3.27%
11,Cc1ccc(CNC(=O)CCCN2C(=O)CCn3nc(C)cc32)cc1,2.35%
12,Cc1ccc(F)cc1S(=O)(=O)N1CCC(Oc2ccc(-n3cnnn3)cc2)CC1,3.88%
13,CCOc1ccc(C2C(C(=O)c3ccccc3)=C(O)C(=O)N2CCOC)cc1 (stereo not shown),1.37%
14,CC(NC(=O)c1cnn2c(C(F)F)cc(C3CC3)nc12)c1ccncc1 (stereo not shown),-4.15%
15,O=S(=O)(c1ccccc1)N1N=C(c2ccc(Cl)cc2)CC1c1cccs1 (stereo not shown),-5.1%
16,CCN(CC)S(=O)(=O)c1nnc(NC(=O)c2ccccc2F)s1,-5.37%
17,Cc1cc(C(=O)CSc2ncnc3sc4c(c23)CCC4)c(C)n1Cc1ccco1,3.47%
18,COC(=O)c1ccc(COc2ccc(C=O)cc2OC)o1,-6.6%
19,COc1cc(-c2nc3ccccn3c2/N=C/c2c[nH]nc2-c2ccccc2)ccc1O,13.2%
20,O=C(CC1Nc2ccccc2NC1=O)Nc1cccc(C(F)(F)F)c1 (stereo not shown),-3.23% and 0.317%
21,COc1ccc(N2C(=O)C(C)SC23C(=O)Nc2ccccc23)cc1 (stereo not shown),0.142%
22,Cn1cccc1CN1CCN(C(=O)c2cccc(Cl)c2)CC1,-8.76%
23,CCOc1ccc(C=C2C(=O)NC(=O)NC2=O)c(O)c1,8.97%
24,CC(C)C[C@H](NC(=O)OCc1ccccc1)C(=O)NC1COCC1=O (stereo partly shown),0.173%
25,CCOC(=O)c1ccc(CN(Cc2ccccc2C)S(=O)(=O)c2ccc3c(c2)OCCO3)cc1,-7.57%

row,Compound,% Inhibition @ 10 uM
1,CCCCCCc1cc2cc(C(=O)O)c(=O)oc2cc1O,4.08%
2,CC(C)=CCC/C(C)=C/CN(CC(C)O)CC(C)O (stereo not shown),-2.34%
3,COc1ccc(Oc2coc3cc(OCc4ccccc4C)ccc3c2=O)cc1,-4.84%
4,CCOCCCNC(=O)/C(C#N)=C/c1c(Oc2ccccc2)nc2c(C)cccn2c1=O,-5.1%
5,O=C(O)c1cnn(-c2ccccc2)c1-c1ccncc1,2.39%
6,O=C(O)CCCNc1ccc(S(=O)(=O)N2CCCCC2)cc1,0.505%
7,CC(=O)c1ccc(N2CCN(Cc3cccc(O)c3)CC2)cc1,2.22%
8,CCc1ccc(S(=O)(=O)c2nnn3c2nc(N2CCC(C)CC2)c2ccccc23)cc1,-4.85%
9,CCOC(=O)c1c(C)oc(NC(C)=O)c1C#N,1.72%
10,COc1cccc(C(=O)Nc2c(-c3ccccc3)nc3cc(C)ccn23)c1OC,0.813%
11,Cc1ccc(S(=O)(=O)NC(C)(C)CSc2nc[nH]n2)cc1,0.758%
12,COc1ccc(-c2cc(-c3ccc(C)cc3)nc(N3CCCC3)n2)cc1,-1.5%
13,COc1ccccc1CNC(=O)CCn1cnc2onc(-c3ccc(F)cc3)c2c1=O,-1.97%
14,COc1ccc(S(=O)(=O)N(C(C)=O)c2ccc3oc4c(c3c2)CCCC4)cc1,-15.4%
15,COc1ccc(OC)c(S(=O)(=O)N2CC=C(c3c(C)[nH]c4ccccc34)CC2)c1,3.76%
16,CCOC(=O)C1=C(CS(=O)(=O)c2ccccc2)NC(=O)NC1c1cccc(Cl)c1 (stereo not shown),-2.16%
17,COc1ccc(-c2csc(/C(C#N)=C/c3ccccc3[N+](=O)[O-])n2)cc1,6.11%
18,COc1ccc(CCNC(=O)Cn2nnc(-c3ccc(OCc4ccccc4F)cc3)n2)cc1OC,-0.703%
19,COc1cc(OC)cc(C(=O)n2nc(C)c(-c3ccccc3)c2N)c1,-0.703%
20,CCN(CC)S(=O)(=O)c1ccc(NC(=O)c2ccc(Br)o2)cc1,-1.06%
21,CSc1nc2c(ccc3ccccc32)o1,-0.215%
22,COC(=O)C1=C(C)N(C)C(=O)NC1c1cc(OC)ccc1OC (stereo not shown),3.15%
